Source: the supplement of paper PMC6206098
± gives the uncertainty stated by the source. Shown are siRNA guide strands that differ only in the seed, positions 2 to 7.

Tests used:
[1] = test system: 3LL; assay: cell viability relative to siNT1 control; higher = less toxic; details: concentration: 10 nM; 96 h; Mus musculus;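 further: Luminescence-based viability of cells reverse transfected in 384-well plates with lipid-complexed siRNAs built on a non-toxic 19mer backbone whose passenger strand carries 2′-O-methyl groups at positions 1 and 2, triplicates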
[2] = test system: H460; assay: cell viability relative to lipid-only control; HeyA8 human ovarian and H460 human lung cancer; M565 mouse liver and 3LL mouse lung cancer; siNT1 is a non-toxic control siRNA; higher = less toxic; details: concentration: 10 nM; 96 h; Homo sapiens
[3] = test system: HeyA8; assay: as above; details: concentration: 10 nM; 96 h; Homo sapiens
[4] = test system: M565; assay: as above; details: concentration: 10 nM; 96 h; Mus musculus
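Wherever cell viability relative to lipid-only control is given: reverse lipid transfection in 384-well plates, in triplicate, of duplexes on a non-toxic 19mer backbone with passenger strand 2′-O-methylated at positions 1 and 2, luminescence viability read-out.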

Sequence	cell viability [1] [%]	cell viability [2] [%]	cell viability [3] [%]	cell viability [4] [%]
UCAACCGACAUGUAAACCAAA	89.1 ± 14	56.6 ± 3.3	88 ± 6.5	62.8 ± 13
UAGGGAAACAUGUAAACCAAA	86 ± 14	100 ± 11	88.3 ± 13	60.7 ± 11
UUCAACCACAUGUAAACCAAA	12.9 ± 4.8	22.5 ± 1.8	18.6 ± 3.3	5.48 ± 1.9
UGGUAGGACAUGUAAACCAAA	17.1 ± 2	35.5 ± 4.5	6.21 ± 1.6	16.3 ± 5.3
UUCAAUAACAUGUAAACCAAA	100 ± 21	62.5 ± 1.5	96.9 ± 14	103 ± 21
UAAUGCGACAUGUAAACCAAA	108 ± 12	101 ± 7.3	106 ± 4.2	94.8 ± 24
UGGCAUUACAUGUAAACCAAA	72.3 ± 4.3	43.3 ± 1.5	4.64 ± 0.33	25.8 ± 3.6
UCGAAUCACAUGUAAACCAAA	91.3 ± 25	71.5 ± 5.3	44 ± 3.9	69.3 ± 7.2
UUGGGCGACAUGUAAACCAAA	23.4 ± 3.7	30 ± 3.4	14.6 ± 2.8	47.7 ± 3.4
UGUGCUCACAUGUAAACCAAA	39.9 ± 5.9	51.7 ± 6.7	66.9 ± 6	38.8 ± 4
UCUAACGACAUGUAAACCAAA	96.7 ± 18	54.5 ± 3.6	86.5 ± 5.6	68.1 ± 12
UUGGGUGACAUGUAAACCAAA	14.6 ± 4.3	23.3 ± 0.73	22.7 ± 2.6	26.3 ± 1.3
UGCCAGGACAUGUAAACCAAA	50 ± 4.6	20.4 ± 2.2	33.4 ± 2.7	26.9 ± 4
UCCAAACACAUGUAAACCAAA	86.2 ± 19	75.4 ± 7.9	67.1 ± 7.9	62.5 ± 4.7
UCUCUUGACAUGUAAACCAAA	105 ± 12	34.2 ± 2.9	86.7 ± 2	74.1 ± 12
UGCACGGACAUGUAAACCAAA	50.6 ± 7.9	31.4 ± 5.1	40.2 ± 2.9	53.6 ± 9.3
UUAAUACACAUGUAAACCAAA	88.1 ± 9.5	81.1 ± 11	79.5 ± 5.4	56.6 ± 7.4
UCGGGAGACAUGUAAACCAAA	88.1 ± 18	54.1 ± 4.9	58.4 ± 1.5	49.7 ± 2.6
UCAAGCGACAUGUAAACCAAA	90.4 ± 18	62.6 ± 7.5	83.5 ± 7.6	54.7 ± 1.6
UCACUACACAUGUAAACCAAA	92.7 ± 9.3	26.3 ± 3	56.7 ± 4	62.1 ± 1.8

Sequence	cell viability [1] [%]	cell viability [2] [%]	cell viability [3] [%]	cell viability [4] [%]
UAUCCGGACAUGUAAACCAAA	95.8 ± 7.4	99.7 ± 6.7	85 ± 13	103 ± 7.7
UACCUACACAUGUAAACCAAA	94.9 ± 5.6	53.5 ± 8	63.9 ± 3	33.6 ± 5.4
UCAUAGAACAUGUAAACCAAA	91 ± 19	41.6 ± 2.6	86.7 ± 1.7	50.9 ± 12
UUCGCACACAUGUAAACCAAA	73.3 ± 14	89 ± 14	86 ± 4.2	108 ± 23
UAUCCAGACAUGUAAACCAAA	102 ± 8.4	78.2 ± 7.1	87.4 ± 4.8	34.7 ± 3.8
UGGGGUUACAUGUAAACCAAA	41.6 ± 2.3	31.2 ± 2.4	7.86 ± 0.65	22.7 ± 4.1
UACAGUGACAUGUAAACCAAA	88.5 ± 12	89.8 ± 19	94.9 ± 4.6	48.3 ± 7.3
UAGUCAGACAUGUAAACCAAA	48.3 ± 2.8	63.3 ± 13	33.9 ± 3.5	26.4 ± 4.9
UCAAACCACAUGUAAACCAAA	70.9 ± 9.7	38.4 ± 7.9	42.1 ± 5.5	64.9 ± 7.4
UGACAACACAUGUAAACCAAA	13.3 ± 6.2	57.4 ± 14	71.47 ± 0.69	30.8 ± 3.8
UCCAGACACAUGUAAACCAAA	60.2 ± 9.7	40.6 ± 4.2	47.5 ± 5.9	37.3 ± 8.5
UAGCGGCACAUGUAAACCAAA	11.3 ± 2.2	30.6 ± 11	4.4 ± 0.25	10.2 ± 0.76
UGUAUCUACAUGUAAACCAAA	78.8 ± 5.8	51.4 ± 2.8	15 ± 0.72	65.8 ± 17
UUCUCAUACAUGUAAACCAAA	85.4 ± 7.5	53 ± 10	91 ± 9	76.8 ± 6.5
UACCCUAACAUGUAAACCAAA	91.6 ± 7.2	70 ± 13	86 ± 8.9	57 ± 0.81
UACUAAGACAUGUAAACCAAA	99.4 ± 12	92.7 ± 6.4	92.3 ± 5.9	64.3 ± 8.5
UAGGCGCACAUGUAAACCAAA	16.7 ± 3.2	27.2 ± 7.4	24.7 ± 2.6	9.69 ± 2.9
UUUGUACACAUGUAAACCAAA	86.7 ± 6.1	68.6 ± 0.68	69.4 ± 3.3	79.8 ± 14
UGUUAAGACAUGUAAACCAAA	86.6 ± 5.5	64.7 ± 6.7	67.3 ± 5.8	71.4 ± 7.8
UAGCUUCACAUGUAAACCAAA	32.1 ± 5.7	57.5 ± 12	22.2 ± 1.6	8.01 ± 0.63

Sequence	cell viability [1] [%]	cell viability [2] [%]	cell viability [3] [%]	cell viability [4] [%]
UCACGGAACAUGUAAACCAAA	99.6 ± 12	30.5 ± 4.6	86.7 ± 11	62.3 ± 8.6
UCGGCCGACAUGUAAACCAAA	93.5 ± 17	51.2 ± 6	45 ± 6.5	25.5 ± 1.9
UCGAAAUACAUGUAAACCAAA	86.6 ± 22	72.8 ± 19	81.2 ± 3.5	65.7 ± 6.4
UAUACUUACAUGUAAACCAAA	111 ± 9.3	66.3 ± 2.3	100 ± 4.4	73.9 ± 14
UUAGCUAACAUGUAAACCAAA	80.2 ± 12	96.7 ± 9.8	97.8 ± 1.9	73 ± 4.2
UCGUAGAACAUGUAAACCAAA	87.2 ± 15	69.1 ± 11	74.3 ± 3.6	71.3 ± 7.4
UGCUCAUACAUGUAAACCAAA	82.1 ± 14	73.6 ± 19	73.4 ± 3.4	81.6 ± 6.6
UUACACUACAUGUAAACCAAA	73.4 ± 12	73 ± 12	88.7 ± 4.4	51 ± 16
UUUUACCACAUGUAAACCAAA	52.7 ± 3.4	36.1 ± 2.5	62.1 ± 18	95.3 ± 14
UGGAAUGACAUGUAAACCAAA	97.9 ± 7.1	55.1 ± 1.8	45.5 ± 4.1	15.8 ± 2.9
UGUGAAUACAUGUAAACCAAA	76.6 ± 4.6	47.3 ± 7.5	52.2 ± 3.8	29.8 ± 2.1
UGAGCGCACAUGUAAACCAAA	64 ± 24	58.1 ± 7.2	63.2 ± 4.7	37.4 ± 6.6
UGAUUGUACAUGUAAACCAAA	94.8 ± 19	60.6 ± 17	36.6 ± 4.7	96.5 ± 4.9
UCUUCAUACAUGUAAACCAAA	94 ± 10	59.4 ± 3.2	80.7 ± 8.9	82.2 ± 4.5
UAGGUAUACAUGUAAACCAAA	23 ± 3	59.5 ± 14	48.5 ± 5.3	46.9 ± 9.5
UCAUCUAACAUGUAAACCAAA	93.3 ± 17	47.1 ± 3	83.6 ± 10	65 ± 14
UGGCUAUACAUGUAAACCAAA	36.4 ± 11	31 ± 0.91	3.56 ± 1.1	33 ± 7.3
UCCGCUGACAUGUAAACCAAA	107 ± 18	93.3 ± 21	79.6 ± 10	80.8 ± 8.5
UCGACCGACAUGUAAACCAAA	94.3 ± 19	81.4 ± 14	87.6 ± 4.4	66.9 ± 7.1
